Measured values reported in ChEMBL document CHEMBL1201862, “PubChem BioAssay data set” (2004).

test system: NCI-H322M; experiment: DTP human tumour cell line panel, 48 h

Row | SMILES | GI50
1 | CCC1C(=O)C(O)[C@H]2[C@@H]3C(O)CC4=CC(=O)CC[C@]4(C)[C@H]3CC[C@]12C (stereo not given in full) | inactive: > 50 µM
2 | COc1cccc(-c2cc(O)c3cc(OC)ccc3n2)c1 | active: 0.641 µM
3 | O=C1C(c2ccccc2)=C(c2ccccc2)C(c2ccc(Sc3ccc(C4=C(c5ccccc5)C(=O)C(c5ccccc5)=C4c4ccccc4)cc3)cc2)=C1c1ccccc1 | inactive: > 100 µM
4 | COc1ccc([C@H]2[C@H](C)C3=Nc4ccccc4CN32)cc1 | inactive: 57.1 µM
5 | CC(=O)OC(CCC1(C)OC1COc1ccc(CCNC(=O)C=C(C)C)cc1)C(C)(C)OC(C)=O (stereo not given) | inactive: > 100 µM
6 | CC(C)(C)OC(=O)N1CC(O)O[C@H](c2ccccc2)[C@@H]1c1ccccc1 (stereo not given in full) | inactive: 33.2 µM
7 | C=CCOC(=O)CCCCCCCCCCCCCCCOC(=O)C1=C(CCC[C@@H](C)O[Si](C)(C)C(C)(C)C)NC(=O)N2[C@H](CC3(CC/C=C\[C@H](CC)O[Si](C(C)C)(C(C)C)C(C)C)OCCO3)CC[C@H]12 | inactive: > 100 µM
8 | CCN(CC)CCOc1ccc(N2Cc3ccccc3C2=O)cc1 | inactive: > 10 µM
9 | N=C(N)NS(=O)(=O)c1ccc(NC(=O)c2c3ccccc3nc3ccccc23)cc1 | inactive: > 100 µM
10 | O=C(O)C1C(=O)Oc2c(cccc2[N+](=O)[O-])C1O (stereo not given) | inactive: > 100 µM
11 | O=C1C=C(Br)C(=O)C12CCc1ccccc12 (stereo not given) | inactive: 37.3 µM
12 | N/N=C(/CC(O)(C(F)(F)F)C(F)(F)F)c1ccccc1 | inactive: > 10 µM
13 | CN1c2ccccc2N(C)C23N(C)c4ccccc4N(C)C12N(C)c1ccccc1N3C (stereo not given) | inactive: > 100 µM
14 | Cc1ccc(NC(=O)C(=O)C(C#N)c2ccccc2C)cc1C (stereo not given) | inactive: > 100 µM
15 | O=C(O)c1cc2c(cc1CC(Cc1ccc3c(c1)CCCC3)C(=O)O)CCCC2 (stereo not given) | inactive: 82.6 µM
16 | COc1cc(CNc2nc3cc(C(F)(F)F)ccc3nc2-c2ccccc2)cc(OC)c1OC | inactive: 34.9 µM
17 | COC(=O)c1cc2c3c(ccc2[nH]1)N(C(=O)c1cc2cc(OC)c(OC)c(OC)c2[nH]1)CC3CCl (stereo not given) | inactive: > 100 µM
18 | CCOC(=O)C(=O)NC12CC3CC(CC(C3)C1)C2 | inactive: > 100 µM
19 | N#Cc1ccc(C2SCc3nc4ccccc4n32)cc1 (stereo not given) | inactive: > 100 µM
20 | N#Cc1c(C#N)c(-c2ccccc2)n(Cc2ccccc2)c1N | inactive: > 100 µM
21 | CC(C)=CCC/C(C)=C/CC/C(C)=C/CC/C(C)=C/CC/C(C)=C\CC/C(C)=C/CC/C(C)=C/CC/C(C)=C/Cc1cc(O)ccc1O | inactive: 6.27 µM
22 | COC(=O)CNC(=O)CCC(C)[C@H]1CCC2C3C(C[C@H](OC(C)=O)[C@@]21C)[C@@]1(C)CCC2(C[C@H]1C[C@H]3OC(C)=O)OOC1(CCCCC1)OO2 (stereo not given in full) | inactive: 23.7 µM

Row | SMILES | GI50
23 | COc1ccc2c(c1)[n+]([O-])c(-c1ccc([N+](=O)[O-])cc1)c(N)[n+]2[O-] | inactive: 61.8 µM
24 | Cc1ccc(/N=N/c2c(O)ccc3ccccc23)c(C)c1 | inactive: > 100 µM
25 | CS(=O)(=O)OC1CCN(C2(c3cccc(O)c3)CCCCC2)CC1 | inactive: > 100 µM
26 | COc1cc(COC(=O)N2CSCC2C(=O)O)c([N+](=O)[O-])cc1OC (stereo not given) | inactive: > 100 µM
27 | c1ccc(/N=C2\SC3=NCCN3\C2=N/c2ccccc2)cc1 | inactive: 16.7 µM
28 | CCOC(=O)C12CCCC1(O)N(NC(=O)OC(C)(C)C)C(C)=C2C(=O)OC (stereo not given) | inactive: > 100 µM
29 | CC(=O)Oc1ccccc1C(=O)Nc1ncc([N+](=O)[O-])s1 [NITAZOXANIDE] | inactive: 18.7 µM
30 | COc1c(Br)cc(Br)c(OC)c1-c1[nH]c(Br)c(Br)c1Br | inactive: 9.89 µM
31 | C=CCN1C(=O)/C(=C/c2cccs2)N=C1SC1OC(COC(=O)c2ccccc2)C(OC(=O)c2ccccc2)C1OC(=O)c1ccccc1 (stereo not given) | inactive: > 100 µM
32 | COc1ccc(C2C3=C(COC3=O)Oc3cc4c(cc32)OCO4)c(OC)c1 (stereo not given) | inactive: 42.1 µM
33 | OCC(CCc1c[nH]c2ccccc12)c1c[nH]c2ccccc12 (stereo not given) | inactive: 16.3 µM
34 | CS(=O)(=O)CC1=Nc2nnc(CCCCCCCc3nnc4n3C(=O)C(CS(C)(=O)=O)=N4)n2C1=O | inactive: > 100 µM
35 | CC(=O)NCCSC(=O)c1ccccc1 | active: 0.76 µM
36 | c1ccc(CN(Cn2cccn2)Cn2cccn2)nc1 | inactive: > 100 µM
37 | CCCCCCCCCCCCCC(=O)NCC(OCC)OCC | inactive: > 100 µM
38 | N[C@@H](Cc1ccc2oc3cc(=O)c4ccccc4c-3nc2c1)C(=O)O | inactive: 30.5 µM
39 | NCC1(N2CCOCC2)C2CCCC21CO (stereo not given) | inactive: > 100 µM
40 | C=CCNC(=O)NCCCC(NC(C)=O)C(=O)NCc1ccccc1 (stereo not given) | inactive: > 100 µM
41 | O=c1nc(-c2ccccc2)scc1-c1ccccc1 | inactive: > 100 µM
42 | CC(C)OC(=O)NNc1cccc(Cl)c1 | inactive: > 100 µM
43 | C=CCCCCOC1C=CC(OC(C)=O)C(COC(C)=O)O1 (stereo not given) | inactive: > 100 µM
44 | C=C1C(=O)OC2C1C(OC(=O)/C(C)=C/C)CC1(C)C(=O)CCC(=C)C21 (stereo not given) | inactive: 20.4 µM

Row | SMILES | GI50
45 | CCn1c(=O)c2c(=O)[nH][nH]c2c2ccccc21 | inactive: > 100 µM
46 | O=C(O)CN(CC(=O)O)C(C(=O)O)c1ccccc1 (stereo not given) | inactive: > 100 µM
47 | CN(N=O)N1C(=O)SCC(c2ccccc2)(c2ccccc2)C1=O | inactive: 48.1 µM
48 | O=C(N/N=C/c1cc(-c2ccccc2Cl)c(-c2ccccc2Cl)o1)c1ccncc1 | inactive: > 100 µM
49 | Cc1cc(=O)[nH]c2cc(NC(=O)C(C)NC(=O)C(C)NC(=O)C(C)NC(=O)OC(C)(C)C)ccc12 (stereo not given) | inactive: > 15 µM
50 | O=C1c2ccccc2-c2c1c1ccccc1c(=O)n2CCO | inactive: 18.9 µM
51 | CC1(C=O)CC(CCc2ccccc2)NC1Cc1ccc(O)cc1 (stereo not given) | inactive: 17.6 µM
52 | CC1(C)CC(=O)C2=C(C1)OC1=C(CC(C)(C)CC1=O)C2c1ccccc1[N+](=O)[O-] (stereo not given) | inactive: > 100 µM
53 | CC(=O)C1C(=O)NC(=O)C1=O (stereo not given) | inactive: > 100 µM
54 | Cc1ccc(C(=O)N/N=C(\N=N\c2cccc([N+](=O)[O-])c2)c2ccc(N(C)C)cc2)cc1 | inactive: 57.5 µM
55 | C=CC(O)(CBr)CCC(Br)C(C)(C)Cl (stereo not given) | inactive: > 10 µM
56 | Cn1nc(S(N)(=O)=O)s/c1=N/S(=O)(=O)c1ccc(N)cc1 | inactive: > 100 µM
57 | N#CC(O)CCOCc1ccccc1 (stereo not given) | inactive: > 100 µM
58 | CN(C)CCNC(=O)Cn1cnc2cccc([N+](=O)[O-])c2c1=O | inactive: > 100 µM
59 | COc1ccc2c(c1OCC(=O)O)C(=O)C(CCC(=O)O)CC2 (stereo not given) | inactive: > 100 µM
60 | O=C1NC2c3c(I)sc(I)c3C(O)C2O1 (stereo not given) | inactive: > 100 µM
61 | N#C/C(=C1\OC(=N)C(c2ccc(Cl)cc2Cl)C1=O)c1ccc(Cl)cc1Cl (stereo not given) | inactive: > 100 µM
62 | O=C(/C=C/c1ccc(O)cc1)c1ccc(O)cc1 [4,4'-DIHYDROXYCHALCONE] | inactive: 30.2 µM
63 | COc1cc2c3c(c1OC)Oc1ccc(cc1)CC1c4c(cc(OC)c(OC)c4Oc4ccc(cc4)CC3N(C)CC2)CCN1C (stereo not given) | inactive: 23.7 µM
64 | O=C(O)c1ccc([C@@H]2C(=O)N(O)[C@@H]3C=CC[C@@H]32)cc1 | inactive: > 100 µM
65 | CC(/C=C/c1ccccc1)=N\NC(N)=S | inactive: 45.2 µM

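Where inhibition never reached the appropriate level, the endpoint shown equals the highest concentration tested. Otherwise, values were interpolated linearly from a five-concentration, 48-hour dose response in 96-well plates. Here, GI50 denotes the concentration required for 50% inhibition of growth.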 The source made the active and inactive calls. Rule as the data show it: active = GI50 up to about 1.1 µM and inactive = higher.
